{
  "source": "PubChem BioAssay AID588453",
  "about": "(National Center for Advancing Translational Sciences (NCATS), 2011)",
  "note": "In all, about 390,000 compounds went through this assay and about 4,000 (1%) were called active. The shares of active, inactive and inconclusive entries below differ from those in the screen. Calls follow the shape of the dose curve; as a rule, active = well fitted inhibition curve with a large enough effect; inconclusive = small, poorly fitted or top-dose-only effect; inactive = no such curve, though single readings can be large or run the other way. Where the call is inconclusive, the potency comes from a doubtful curve fit. % is scaled to controls: 0 for no effect and ±100 for the full control effect; potency is read from the fitted curve at half-maximal effect; tags tell the direction and shape of the fitted curve.",
  "data": [
    {"biological_target": "Thioredoxin reductase 1, cytoplasmic (Rattus norvegicus) (UniProt O89049)", "sequence (O89049 whole entry, looked up)": "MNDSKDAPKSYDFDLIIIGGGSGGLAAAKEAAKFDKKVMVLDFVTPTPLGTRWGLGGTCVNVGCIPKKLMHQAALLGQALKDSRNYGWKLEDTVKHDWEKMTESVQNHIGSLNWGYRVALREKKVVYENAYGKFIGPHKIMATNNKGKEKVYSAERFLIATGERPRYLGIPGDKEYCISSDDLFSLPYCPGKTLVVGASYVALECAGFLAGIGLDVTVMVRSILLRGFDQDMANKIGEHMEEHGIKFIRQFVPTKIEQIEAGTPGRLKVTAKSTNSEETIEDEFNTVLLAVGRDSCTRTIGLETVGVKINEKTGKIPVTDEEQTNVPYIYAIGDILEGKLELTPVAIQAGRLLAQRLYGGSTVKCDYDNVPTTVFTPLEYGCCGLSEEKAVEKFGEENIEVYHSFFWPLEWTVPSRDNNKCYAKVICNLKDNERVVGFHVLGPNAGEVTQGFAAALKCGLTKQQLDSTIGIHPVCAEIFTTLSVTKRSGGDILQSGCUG", "experiment": "qHTS Assay for Inhibitors of Mammalian Selenoprotein Thioredoxin Reductase 1 (TrxR1): qHTS; also: nearly all actives have a fitted effect of over 65% in size", "details": "recombinant rTrxR1, NADPH fluorescence consumption, selenite substrate; series mostly up to 114 µM; activity change, negative = inhibition: at the top concentration", "method_in_brief": "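Rat TrxR1 (90 nM in the dispensed reagent) was pre-reduced with 400 uM NADPH for 5 min at room temperature, then incubated with compound for 15 min. After 400 uM selenite was added, NADPH fluorescence (Ex 340/Em 450 nm) was followed for 8 min.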", "values": [
      {"smiles": "COc1cc(C2C3=C(CCCC3=O)Nc3[nH]n(-c4ccccc4)c(=O)c32)ccc1OC(C)=O", "note": "(configuration not stated)", "Potency": "inconclusive: 17.8 µM [inhibitor, partial curve, poor fit]"},
      {"smiles": "O=C(CSc1nnc(-c2cccs2)n1Cc1ccco1)c1ccc2c(c1)OCO2", "Potency": "inconclusive: 56.2 µM [inhibitor, single point]"},
      {"smiles": "CN(C)c1ccc(CN(C(=O)C2COc3ccccc3O2)C2CCS(=O)(=O)C2)cc1", "note": "(configuration not stated)", "Potency": "inconclusive: 12.6 µM [inhibitor, full curve]"},
      {"smiles": "c1coc(-c2nc(-c3ccco3)c(-c3ccco3)nc2-c2ccco2)c1", "Potency": "active: 2.82 µM"},
      {"smiles": "CCOC(=O)/C=C/C(=O)OCC(=O)Nc1cccc(Br)c1", "Potency": "inconclusive: 7.94 µM [inhibitor, partial curve]"},
      {"smiles": "COc1ccc(NC(=O)c2c(NC(=O)C(F)(F)F)sc3c2CCCCC3)cc1", "activity change, negative = inhibition": "inactive: 7.9%"},
      {"smiles": "Cc1csc(NC(=O)c2cccn2C)n1", "activity change, negative = inhibition": "inactive: 9.51%"},
      {"smiles": "COC(=O)CN1C(=O)[C@H]2[C@@H](c3ccc(C)o3)N3C(=O)CN(Cc4ccc(-c5ccccc5)cc4)C(=O)[C@@]3(C)[C@H]2C1=O", "Potency": "inconclusive: 50.1 µM [inhibitor, partial curve]"},
      {"smiles": "CC(C)(C)c1ccc(C2CC2C(=O)N/N=C\\c2ccc[nH]2)cc1", "note": "(configuration not stated)", "Potency": "inconclusive: 44.7 µM [inhibitor, partial curve]"},
      {"smiles": "O=C(/C=C\\NCC(=O)c1ccccc1)c1ccc2ccccc2c1", "Potency": "inconclusive: 50.1 µM [inhibitor, partial curve]"},
      {"smiles": "O=c1[nH]c(-c2cccnc2)nc2ccccc12", "activity change, negative = inhibition": "inactive: 5.11%"},
      {"smiles": "[O-]C1=N/[N+](=C/c2ccccc2Cl)CC1", "Potency": "inconclusive: 39.8 µM [inhibitor, single point]"},
      {"smiles": "O=[N+]([O-])c1ccc2c(c1)C=C/C2=C/c1ccccc1", "Potency": "inconclusive: 44.7 µM [inhibitor, partial curve]"},
      {"smiles": "CN(C)NC1CCS(=O)(=O)C1", "note": "(configuration not stated)", "Potency": "inconclusive: 50.1 µM [inhibitor, partial curve, poor fit]"},
      {"smiles": "O=C(Nc1nc(-c2nc3ccccc3s2)cs1)C1CC1", "Potency": "inconclusive: 89.1 µM [inhibitor, single point]"},
      {"smiles": "CCOCCCn1c(=N)c(C(=O)NCc2cccnc2)cc2c(=O)n3ccccc3nc21", "Potency": "inconclusive: 63.1 µM [inhibitor, single point]"},
      {"smiles": "Cc1ccc(N2C(=O)CCSC23C(=O)N(Cc2ccccc2)c2ccccc23)cc1", "note": "(configuration not stated)", "activity change, negative = inhibition": "inactive: 27.6%"},
      {"smiles": "O=C(c1ccc(CS(=O)(=O)c2ccccc2)o1)N1CCN(c2ncccn2)CC1", "Potency": "inconclusive: 25.1 µM [inhibitor, single point]"},
      {"smiles": "COCc1ccc(C(=O)N2CCCC(C(=O)c3ccc(SC)cc3)C2)o1", "note": "(configuration not stated)", "Potency": "inconclusive: 50.1 µM [inhibitor, partial curve, poor fit]"},
      {"smiles": "Cc1ccc(O)c(C(CC(=O)N2CCCC2)c2ccccc2)c1", "note": "(configuration not stated)", "Potency": "inconclusive: 70.8 µM [inhibitor, single point]"},
      {"smiles": "CCOc1ccc(CNC(=O)CSc2nnc(C)c3c(C)n(-c4ccc(Cl)cc4)nc23)cc1", "activity change, negative = inhibition": "inactive: 23.9%"},
      {"smiles": "O=C(O)c1ccc(/C=N\\Nc2ccc(S(=O)(=O)N3CCOCC3)cc2[N+](=O)[O-])cc1", "Potency": "inconclusive: 50.1 µM [inhibitor, partial curve, poor fit]"},
      {"smiles": "COc1ccc(/C=C/C(=O)c2ccc(C(=O)/C=C/c3ccc(OC)c(OC)c3)cc2)cc1OC", "Potency": "inconclusive: 56.2 µM [inhibitor, partial curve, poor fit]"},
      {"smiles": "CC(Nc1ccc2ccccc2c1)C(=O)N/N=C/c1ccncc1", "note": "(configuration not stated)", "Potency": "inconclusive: 89.1 µM [inhibitor, single point]"},
      {"smiles": "C=CCN1C(=NC(=O)COc2ccc(Cl)cc2)SC2CS(=O)(=O)CC21", "note": "(configuration not stated)", "Potency": "inconclusive: 89.1 µM [inhibitor, single point]"},
      {"smiles": "CC(C(=O)NC1C(=O)N2C(C(=O)O)=C(CSc3nnnn3C)CSC12)n1cc(Cl)cn1", "note": "(configuration not stated)", "Potency": "inconclusive: 35.5 µM [inhibitor, partial curve]"},
      {"smiles": "O=C1CCCC2=C1C(c1ccc(O)c(Br)c1)C1=C(CCCC1=O)N2c1ccccc1", "activity change, negative = inhibition": "inactive: 0.489%"},
      {"smiles": "COc1ccc(CNC(=O)CN2C(=O)CC(c3ccc(C)c(C)c3)=Nc3ccccc32)cc1", "activity change, negative = inhibition": "inactive: 13.5% [at 57.1 µM]"},
      {"smiles": "O=C(NC(N1CCCC1)C(Cl)(Cl)Cl)c1ccccc1", "note": "(configuration not stated)", "Potency": "active: 31.6 µM"},
      {"smiles": "COCc1ccc(CN2CCCC(CO)(Cc3cccc(Cl)c3)C2)o1", "note": "(configuration not stated)", "Potency": "inconclusive: 79.4 µM [inhibitor, partial curve, poor fit]"},
      {"smiles": "O=C(Cn1nc(-c2ccco2)ccc1=O)Nc1ccc(Br)cc1", "Potency": "active: 39.8 µM"},
      {"smiles": "CC(C)Cc1ccc(C(C)C(=O)N2CCOCC2)cc1", "note": "(configuration not stated)", "Potency": "inconclusive: 20 µM [inhibitor, single point]"},
      {"smiles": "COc1ccc(-n2c(=O)cc(N3CC(C)OC(C)C3)[nH]c2=O)cc1", "note": "(configuration not stated)", "Potency": "inconclusive: 89.1 µM [inhibitor, single point]"},
      {"smiles": "Cc1ccc(N/C(C(Cl)=C(Cl)Cl)=C(/Cl)[N+](=O)[O-])c(C)c1", "Potency": "inconclusive: 89.1 µM [inhibitor, single point]"},
      {"smiles": "OC1(CN2CCOCC2)C2CN3CCN(C2)CC1(c1ccccc1)C3", "note": "(configuration not stated)", "Potency": "inconclusive: 35.5 µM [inhibitor, partial curve, poor fit]"},
      {"smiles": "COc1cc(CNCc2ccncc2)cc(Br)c1OCc1ccccc1F", "activity change, negative = inhibition": "inactive: 11.7%"},
      {"smiles": "COc1cccc(NC(=O)c2oc3ccccc3c2NC(=O)c2ccc(F)c(F)c2)c1", "activity change, negative = inhibition": "inactive: 18.1%"},
      {"smiles": "O=C(NCCCn1ccnc1)c1cc2nc(-c3ccc(Br)cc3)cc(C(F)(F)F)n2n1", "activity change, negative = inhibition": "inactive: 3.83%"},
      {"smiles": "O=C(CSc1ccsc1[N+](=O)[O-])NC1CCCC1", "Potency": "inconclusive: 17.8 µM [inhibitor, partial curve, poor fit]"},
      {"smiles": "CC(C)C[C@@H](CSc1ccccc1)N1CCN(CCc2ccccc2)CCC1=O", "Potency": "inconclusive: 79.4 µM [inhibitor, partial curve]"},
      {"smiles": "COc1ccc(CCNC(=O)CSc2ccc(-c3ccco3)nn2)cc1OC", "Potency": "inconclusive: 79.4 µM [inhibitor, partial curve]"},
      {"smiles": "C=CCn1c(NC(=O)c2ccc(Br)o2)c(C(=O)OCC)sc1=S", "Potency": "inconclusive: 28.2 µM [inhibitor, full curve]"},
      {"smiles": "O=C1CN(/N=C/c2ccc([N+](=O)[O-])o2)C(=O)N1", "Potency": "inconclusive: 35.5 µM [inhibitor, partial curve]"},
      {"smiles": "O=C(N/N=C/c1ccc([N+](=O)[O-])s1)C(O)c1ccccc1", "note": "(configuration not stated)", "Potency": "inconclusive: 12.6 µM [inhibitor, full curve, poor fit]"},
      {"smiles": "Cc1cccc(-c2c3c(=O)n(C)c(=O)n(C)c3cn2CC2CCCO2)c1", "note": "(configuration not stated)", "Potency": "inconclusive: 22.4 µM [inhibitor, full curve]"},
      {"smiles": "CCN(CC)CC(=O)c1ccc(-c2ccccc2)cc1", "Potency": "inconclusive: 15.8 µM [inhibitor, partial curve, poor fit]"},
      {"smiles": "COc1ccc(OCc2nnnn2-c2ccccc2)cc1", "activity change, negative = inhibition": "inactive: 2.07%"},
      {"smiles": "Cc1cc(C(=O)CSc2ccc3c(c2)OCCO3)c(C)n1C1CC1", "activity change, negative = inhibition": "inactive: 13.1% [at 57.1 µM]"},
      {"smiles": "O=[N+]([O-])c1ccc(Sc2nccn2Cc2ccccc2)c([N+](=O)[O-])c1", "Potency": "inconclusive: 56.2 µM [inhibitor, partial curve, poor fit]"},
      {"smiles": "COc1cccc(-c2cc(C(=O)NCc3ccco3)c3ccccc3n2)c1", "Potency": "inconclusive: 25.1 µM [inhibitor, full curve]"},
      {"smiles": "COc1ccc(C(CNC(=O)c2ccc(F)cc2)N2CCCC2)cc1", "note": "(configuration not stated)", "Potency": "inconclusive: 89.1 µM [inhibitor, single point]"},
      {"smiles": "O=C(/C=C/c1ccco1)N/C(=C\\c1ccco1)C(=O)NCCc1nc2ccccc2[nH]1", "Potency": "inconclusive: 10 µM [inhibitor, partial curve, poor fit]"},
      {"smiles": "O=C(Cc1ccc(S(=O)(=O)N2CCOCC2)s1)Nc1ccc2c(c1)CCC2", "activity change, negative = inhibition": "inactive: 2.2%"},
      {"smiles": "CC(C)n1c(CCC(=O)O)ccc1-c1ccccc1", "Potency": "inconclusive: 44.7 µM [inhibitor, partial curve]"},
      {"smiles": "Cc1ccc(C(=O)c2oc3ccc(Cl)cc3c2NC(=O)CN2CCN(C)CC2)cc1", "activity change, negative = inhibition": "inactive: 11.2%"},
      {"smiles": "CCCSc1nc(O)c(C(c2ccc(OC)c(O)c2)c2c(O)nc(SCCC)n(C)c2=O)c(=O)n1C", "Potency": "active: 11.2 µM"},
      {"smiles": "COC(=O)CSc1nnc(-c2ccc(NS(=O)(=O)c3ccccc3)cc2)o1", "activity change, negative = inhibition": "inactive: -2.07%"},
      {"smiles": "Cc1ccc(CN2[C@@H](Cc3ccccc3)C(=O)CS2(=O)=O)cc1", "Potency": "inconclusive: 56.2 µM [inhibitor, partial curve]"},
      {"smiles": "CCCCc1ccc(NC(=S)NCC2CCCO2)cc1", "note": "(configuration not stated)", "Potency": "inconclusive: 89.1 µM [inhibitor, single point]"},
      {"smiles": "Cn1nnc(NC(=S)NC(=O)c2cc(Cl)ccc2Cl)n1", "Potency": "inconclusive: 1.26 µM [inhibitor, full curve, poor fit]"},
      {"smiles": "Cc1ccc(Cn2c(C)nc3c(c2=O)c2nc4ccccc4nc2n3Cc2ccco2)cc1", "Potency": "active: 10 µM"},
      {"smiles": "Cc1c(C(=O)O)c(O)cc2c1C(=O)c1c(O)c([C@@H]3O[C@H](CO)[C@@H](O)[C@H](O)[C@H]3O)c(O)c(O)c1C2=O", "activity change, negative = inhibition": "inactive: -1.98%"},
      {"smiles": "COc1ccc(S(=O)(=O)NCCSc2nnnn2-c2ccccc2)cc1OC", "activity change, negative = inhibition": "inactive: 21.5%"},
      {"smiles": "O=C(c1ccc(NS(=O)(=O)c2ccc(F)cc2)cc1)N1CCCCC1", "activity change, negative = inhibition": "inactive: -5.52%"},
      {"smiles": "CSc1nnc2c(n1)OC(C)N(C(=O)c1ccccc1)c1ccccc1-2", "note": "(configuration not stated)", "Potency": "inconclusive: 79.4 µM [inhibitor, partial curve, poor fit]"},
      {"smiles": "CC(=C/c1ccccc1)/C=N/NC(=O)c1cc(C)oc1C", "Potency": "inconclusive: 89.1 µM [inhibitor, single point]"},
      {"smiles": "COc1ccc(/C=C2\\CN(Cc3ccccc3)C/C(=C\\c3ccc(OC)cc3)C2=O)cc1", "Potency": "inconclusive: 70.8 µM [inhibitor, partial curve, poor fit]"}
    ]}
  ]
}
